Results taken from article PMC12136788.
The other results are listed elsewhere or left out.

B1: chr17:65740002:65740003:+_ENSG00000130935_ENST00000581375|hu_hu|hu_hu_hu_mus_False|1_108 (ssRNA)
RNA: GGGAGUUCUACAGUCCGACGAUCAACCCGUUCUUGCUCCCUGGACGAACAGGAAGAUUCAUAUUAAAAAAAAUAUAUAUCCAUCAAGUUAGGUGUGGUGGCCACACCUUUACUCCCAGCACUUUGGGAGGUGGAUCCUCUAUUCAACAGAGGAUUGAGCAUCA
B2: 25441313_25442467_1572_CDS_ENSMUSG00000015087_ENSMUST00000058137|mouse|control|control (ssRNA)
RNA: GGGAGUUCUACAGUCCGACGAUCUGCCACCAUUGGGUUCCCUCCUAGGGCCUCCCCAUCGUCACUGUCACUAUCCUGCUGGGGACCUUUGGCUCCAACUUUCUUGUCUUUAGGCACACUUGUGUCUUCCAGGAAGCUUCGGUCCAACAGAGGAUUGAGCAUCA
B3: 104849616_104851911_689_CDS_ENSMUSG00000021710_ENSMUST00000109315|mouse|control|control (ssRNA)
RNA: GGGAGUUCUACAGUCCGACGAUCCUCACUCAUUCUCUUCUUCAUUGAUUUGAUUUCAUUUUUUACGUGUUCUGGAAGAUGGAGUCCAUUCCUUUUCCCCAUUUUAAUUGAUUUUUCCAAGUAUCGCCUGGCCUCAGGCUUUAUCAACAGAGGAUUGAGCAUCA
B4: chrX:16864032:16864033:-_ENSG00000102054_ENST00000404022|hu_hu|motif|central (ssRNA)
RNA: GGGAGUUCUACAGUCCGACGAUCCAUGAUGUUAUCCUCAGACACUGAGCAAAUGACCCAAGGCUCAUUGGGGUUCCAGCGGAAAUCUGAAAUCUUAGCAGUGUGUCCUCCAUGAAUAAACAGGAGUUCUGGAGGCCCAUCUUCCAACAGAGGAUUGAGCAUCA
B5: chr3:158399885:158399886:+_ENSG00000168827_ENST00000264263|hu_mus|FALSE|FALSE (ssRNA)
RNA: GGGAGUUCUACAGUCCGACGAUCCUCAUCAGAAAACUCCAACUUCGUGUAGUCCUCUGGGGGCAAGGGCUCCAGCACUCCUAUUACUUUUCCAAACUGGCCGGCACCACCCGACUGCUUUUUAUGUGUAAAAUCAAACGGCACCAACAGAGGAUUGAGCAUCA
B6: 52112337_52131274_754_3pUTR_ENSMUSG00000022637_ENSMUST00000114471|mouse|control|control (ssRNA)
RNA: GGGAGUUCUACAGUCCGACGAUCAUCAAUGGUUGACUUCAGAGCCAUUGCUUCCAGGCCAGAGCUGAUCUGAUGGACCUCAUGCAGGCACUGUCUGAAGACUUUCCAUGGUACAAUAGUUUUGUCUCCAAAAAACUUCCUCCACAACAGAGGAUUGAGCAUCA
B7: chr18:10004928:10004929:-_ENSMUSG00000047879_ENSMUST00000092096|mus_hu|FALSE|FALSE (ssRNA)
RNA: GGGAGUUCUACAGUCCGACGAUCCUGAAGUCGCAAUUUAAGUCCUGUAAAAAGAUACUUGACUUCCUGAUUGAUAAAACAGCUAAGCUGAAGUUGAUUUUCCUUUCCUUUGGUGACUUCUUCUUCUUCAGAUUCUGUACAUUUCAACAGAGGAUUGAGCAUCA
B8: chr6:107361193:107361194:+_ENSG00000130349_ENST00000311381|hu_hu|FALSE|FALSE (ssRNA)
RNA: GGGAGUUCUACAGUCCGACGAUCUUUAGUAGAUUUUGUAGACCUUAUAUUACUUUUGAGUCUUACGGAAAAAGGAAAAAUACAUUCUGGAGAUAGUAAAAGCCCUGGGAGUCUCAGUGAGAAAAUAUUAUAAAAAAGUGUUUUCAACAGAGGAUUGAGCAUCA
B9: chr4:57314706:57314707:+_ENSG00000128050_ENST00000264221|hu_mus|hu_hu_hu_mus_True|78_88 (ssRNA)
RNA: GGGAGUUCUACAGUCCGACGAUCCAGAAUUUCAAAAAUAGCUUGUGUAGCAUGACUCAUGAUAUCCACUUCAGUCUGCCCUAUAACAAGGCCAGCAAAACAGAAUUUUGCAGCAAUGAGUUGCUCCUCAGACCACUGUGGAUCCAACAGAGGAUUGAGCAUCA
B10: chr5:132440482:132440483:+_ENSG00000170606_ENST00000304858|hu_mus|FALSE|FALSE (ssRNA)
RNA: GGGAGUUCUACAGUCCGACGAUCACCUUCCAAGGCGUAAUACGAACUUCUGUCAUGUAUAAGGAAAAGCCUGCCUGGUGGCUGUCGCGGCUUUUGUUAGAGCUCAGUUUCCCCAAACACACUUCACCUUGUAGAAGCAUGAUUCAACAGAGGAUUGAGCAUCA
B11: chr1:63113421:63113422:-_ENSG00000116641_ENST00000251157|hu_mus|FALSE|FALSE (ssRNA)
RNA: GGGAGUUCUACAGUCCGACGAUCUAAACAUUUCACAAGAAGUCUUUGUCCGAAAUGCUCUUUGGGCACAUCAGGAACACUGAGCCUUUCGAUUGGUUCUUCCUCAUCUGGUGAUGGAUGCAAAGCAAACAGUUCCUUGUGGCGCAACAGAGGAUUGAGCAUCA
B12: chr10:126492284:126492285:-_ENSMUSG00000040502_ENSMUST00000040307|mus_hu|motif|central (ssRNA)
RNA: GGGAGUUCUACAGUCCGACGAUCAAAGUGCCCAGGCUUCAGGCUGACCCACAUUGUAAACAGUCCUUCCCAAAUCUUUUCUCGGUAAACAACAGUCCUCUAUGCUGCUGCCUCCAAACAUAAUGCCAUCCAUUAAUACCACUGCAACAGAGGAUUGAGCAUCA
B13: chr4:115894766:115894767:+_ENSMUSG00000028698_ENSMUST00000030464|mus_hu|mus_mus_mus_hu_True|18_38 (ssRNA)
RNA: GGGAGUUCUACAGUCCGACGAUCUUCCACACGGAAAUGUACUUCGGGUUUUCCAACGGCCAGUACCAGUCCGGCCAAACUACCCGAACAGGGUCCUGUCCUCCUCUCCUACAGAACUAAAGCACCCGCCCCCGAACUUUCAAGCAACAGAGGAUUGAGCAUCA
B14: chr3:100366718:100366719:-_ENSMUSG00000008763_ENSMUST00000008907|mus_mus|motif|central (ssRNA)
RNA: GGGAGUUCUACAGUCCGACGAUCGACAAACAUCACAGGAAGCUUACUGCCCAUCAGGCUUGGCACACCACAACAUAGAUGCGGGCAAGAUGAUACCACAGACUUGUACCUUUCGUGAGUCCUGCAGUUGCUGAUUGACUGUUACAACAGAGGAUUGAGCAUCA
B15: chr2:209110096:209110097:-_ENSG00000138413_ENST00000345146|hu_mus|FALSE|FALSE (ssRNA)
RNA: GGGAGUUCUACAGUCCGACGAUCUUCUUCAAAGUCAUGUACCAUGUAUGUCACCUUCUGAGUUCCAUCUUUUGGUGUGUAGGUUAUCUCUACUUUUCCAGGCCCAGGAACAACAAAAUCAGUUGCUCUGUAUUGGUCCCCAUACAACAGAGGAUUGAGCAUCA
B16: chr9:109937893:109937894:+_ENSMUSG00000032479_ENSMUST00000165876|mus_mus|FALSE|FALSE (ssRNA)
RNA: GGGAGUUCUACAGUCCGACGAUCUUCACGUGGUUUUUCUUCAGUCUGUACAGUUCCUUUGUCUUUAAUUGGAACUGUUGCUACUUUUGUUUCCAAGGGCAGUGCAAGAUCGGAGGCUGGAGCCAUGCUGUUGUCCACAAUCAGCAACAGAGGAUUGAGCAUCA
B17: 120771656_120772108_1059_3pUTR_ENSMUSG00000027272_ENSMUST00000028728|mouse|control|control (ssRNA)
RNA: GGGAGUUCUACAGUCCGACGAUCAAAAUAUCUGUCUAAAGUCACUUGAAUAGCUCAUAAUUUUGUUCAUCCAGGAGCCAAGGCGCAGAGCGAAUUUCUGGUGAGCCAUAACCACGGAGUGCAGCACUUCCACAUGGAGGGGGUCAACAGAGGAUUGAGCAUCA
B18: 21629917_21630847_1285_CDS_ENSG00000004700_ENST00000444129|human|control|control (ssRNA)
RNA: GGGAGUUCUACAGUCCGACGAUCCUGCCGAACCUCAUAAUAUAGAUUUGGCCUAUUAAAAGAAGCUGUAAAAGUAAAACACUUUUCAAUGCACAAAAUUUUCUGAGCAUCCGUCAAAACGUGAUUUGUUGCAGUUGCAGUCAGCAACAGAGGAUUGAGCAUCA
B19: chrX:153670519:153670520:+_ENSG00000203879_ENST00000447750|hu_mus|FALSE|FALSE (ssRNA)
RNA: GGGAGUUCUACAGUCCGACGAUCUGCAGGCUCAACUUCCUUUUCUGGUUCUGCAGUCUCUACAGUGGUGCUGGCAAUGGCGAUGUAUUUGCCCUGUGCGGCCACGUUGUGCGCAUAGGAGAUCAUGCACACAUAGAUGUCUGACAACAGAGGAUUGAGCAUCA
B20: chr3:9412954:9412955:+_ENSG00000134077_ENST00000452837|hu_mus|hu_hu_hu_mus_False|1_38 (ssRNA)
RNA: GGGAGUUCUACAGUCCGACGAUCGGUUGAUAUCUCUUCUUUGAUGGCUGGAUUUUCAUAAUAGUCCAAGAUAUGUGAAUCUGAAGUGCUGCUGGCAAACUCUUUUUUACCAUCUUUCUCAUCUGCUUUGUCUCCUUGUCCAUUCAACAGAGGAUUGAGCAUCA
B21: 49421636_49421834_14532_CDS_ENSG00000167548_ENST00000301067|human|control|control (ssRNA)
RNA: GGGAGUUCUACAGUCCGACGAUCCAACACUGCAUCAAACUGCUUCAGCCAAUCAGGGCCAGUGUCUGGGCUCUUGCCUUCCAGACCCUUUUCCUUCCCACCAGGACCCUCAGCUUCCCCCUUCUUUGGCUCAGUGCCUGCCCGCAACAGAGGAUUGAGCAUCA
B22: chr6:160200208:160200209:-_ENSG00000120438_ENST00000420894|hu_mus|motif|central (ssRNA)
RNA: GGGAGUUCUACAGUCCGACGAUCAAUCCGAAGGAUGGUGAUUGCAGCCUCUGUUGCGAACUUCAGGCUCUUCACUUUAACGGUGGUUGGUUCAAACACCCCUGCUUGCUUGUUGUCUCGUGGUUUCCCAUGGACCAAAUCAAGCAACAGAGGAUUGAGCAUCA

What follows are binders tested against T1, UNK ZnF1-3 (human, UniProt Q9C0B0 31-174) (assay: nsRBNS (natural sequence RNA bind-n-seq); RBNS binding buffer (assumed for nsRBNS): 25 mM Tris pH 7.5, 150 mM KCl, 3 mM MgCl2, 0.01% Triton X-100, 500 ug/ml BSA, 20 U/ml SUPERase-In, 4 C; UNK is unkempt and MSI1 is Musashi-1; names of the RNAs are library labels; protein concentration not given here; high values mean tight binding).
T1 sequence: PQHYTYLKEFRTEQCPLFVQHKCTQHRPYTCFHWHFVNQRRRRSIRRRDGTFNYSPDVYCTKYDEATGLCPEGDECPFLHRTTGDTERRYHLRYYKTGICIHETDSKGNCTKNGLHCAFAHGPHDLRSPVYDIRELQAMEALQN

Row | Binder | binding signal
1 | B1 | 0.96 enrichment R
2 | B2 | 0.658 enrichment R
3 | B3 | 0.464 enrichment R
4 | B4 | 1.36 enrichment R
5 | B5 | 0.934 enrichment R
6 | B6 | 0.85 enrichment R
7 | B7 | 0.601 enrichment R
8 | B8 | 2 enrichment R
9 | B9 | 0.939 enrichment R
10 | B10 | 0.703 enrichment R
11 | B11 | 0.87 enrichment R
12 | B12 | 1.38 enrichment R
13 | B13 | 0.991 enrichment R
14 | B14 | 1.58 enrichment R
15 | B15 | 0.645 enrichment R
16 | B16 | 0.508 enrichment R
17 | B17 | 1.46 enrichment R
18 | B18 | 0.801 enrichment R
19 | B19 | 0.648 enrichment R
20 | B20 | 0.463 enrichment R
21 | B21 | 1.09 enrichment R
22 | B22 | 0.515 enrichment R
